Assay results from the supplement of paper PMC11417369.
The other results are listed elsewhere or left out.

The sequences below were run on PF3D7_0420300 AP2 domain 1 (GST-tagged) (assay: gcPBM binding intensity (ln(normalized median fluorescence intensity)); higher = stronger DNA binding).
Outline: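 Binding intensity is defined as the maximum Masliner-normalised natural-log median intensity across replicate spots for either probe orientation. It was measured on an Agilent 4 × 180k array of primer-extended double-stranded 36-bp intergenic genomic probes and negative controls, to which GST-tagged P. falciparum DNA-binding domains made in E. coli were applied for 1 h in 1× PBS with 1% milk, 0.2 mg/ml BSA, 0.5% salmon testes DNA and 0.03% Triton X-100. Detection was by Alexa488 anti-GST antibody and scanning at 488 nm.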

Row | Sequence | gcPBM binding intensity (ln)
1 | TAACATATTAATAACATATTTATAATATATTAATAA [TGCATGCA_negctrl_site243] | 8.88
2 | AATTATACTTCCTTCACACAGTTACATCATATATTA [CACACA_site5942] | 9.6
3 | AAATAAAATAAAAACATGCACACTTTATTTTTTTTA [CACACA_site2800] | 9.19
4 | AGAAGTTTAAAAAGCACACAAAAAAAAAAAAAAAGA [CACACA_site3309] | 9.47
5 | AAAAATACCTGAATATGTACATATGATCAATGGGCC [XGTACX_site887] | 9.61
6 | ATTCATATATATTATACACACACATATATAAATATA [CACACA_site8228] | 9.74
7 | AAAATCGTGTTCTGAATACACACTAATACAAAGTTG [CACACA_site3985] | 9.21
8 | TAAAAATATAAATTTTGTACGTAAAAAATGGTTCTT [XGTACX_site1506] | 9.23
9 | TGACCGTTTTAAGAGTGTACAAAAAAAAAAAAAAAA [XGTACX_site4141] | 8.5
10 | TATTCTATATAATAATGTACGTGATTTAAATTTTCA [XGTACX_site6650] | 9.01
11 | AAAAATATTTTGGTTTGTACATATATTTTTACAATA [XGTACX_site8691] | 9.16
12 | ACTTATTTCGATATGTGTACTTAATATATATATTTA [XGTACX_site6616] | 9.45
13 | ATTTTTGTAATTATTTGTACACATTTATTTATGTGT [XGTACX_site1864] | 9.66
14 | TTCAAATTGTTTATATGTACTTATAAAAATTGTCTG [XGTACX_site977] | 9.09
15 | ATTAAAAAAAAAAAAAGTACTTATAATTATACTCGT [XGTACX_site4852] | 9.11
16 | AGACCTTTAATTTGTGTGCACATAATTAGTGTACAT [GTGCAC_site9434] | 9.81
17 | TTATATTATATATATGTGCACATTTTTAAACTTGGA | 9.15
18 | ACAAATAAAAATATTACACACACTATTATATTGATA [CACACA_site1494] | 9.86
19 | GGAAGATGAAAAATAAAGCATGTGCTGTACAAACGA [CACACA_negctrl_site1625] | 9.48

Row | Sequence | gcPBM binding intensity (ln)
20 | AAATATTTATATGTTACACACTGTTGATAATTTTCT [CACACA_site1347] | 9.57
21 | TTAATTAGAAATCATACACACATATATATATATATA [CACACA_site173] | 9.24
22 | CATTCAAACAAAAAAAGTACTCATCACATAATATAT [XGTACX_site1251] | 9.44
23 | AAAAAAAAAAAAAAACTTACGATTTTAAAAAGATGG [GTGCAC_negctrl_site291] | 8.93
24 | GAAATGTACAAATACGTACACACATATATATATATA [CACACA_site1541] | 9.54
25 | GCAAAATATTTAAAATAATATATGTGTATATTTTTA [GTGCAC_negctrl_site149] | 8.99
26 | TTTATATTGTTTTATTGTACATATATATTTATACAT [XGTACX_site6821] | 9.51
27 | AAATATATGAATAAATGTACGAAATGAATGGATGAA [XGTACX_site7108] | 9.72
28 | TTATAATCTTATATATGTACATATATATATTATTAT [XGTACX_site7780] | 9.23
29 | AAACATGTATTTTATTGTACACATTCATAAATCACA [XGTACX_site1420] | 9.24
30 | TACATGTATGTAATATGTTTTATTTTTTTCATCTCT [XGTACX_negctrl_site79] | 9.15
31 | CATATTTGTTGACACACACACATATTTATATAAATA [CACACA_site7648] | 9.83
32 | TTTATATGTTTAAAATGTACATGTGGTAAAAATTTT [XGTACX_site5907] | 9.07
33 | GGGAGGATATTACACAGTACCCAGAAAATCTACGGA [XGTACX_site2551] | 9.02
34 | TATTCCTTATTATAATTCTTAAATAAAAAAAAAAAA [TGCATGCA_negctrl_site45] | 8.48
35 | TAGGATTTTTAGTTTATTGTAACTATTATTTTATTT [CACACA_negctrl_site829] | 9.35
36 | ATATATAAACTGAAGGGTACAATGAAAAAAGAACTT [XGTACX_site7219] | 9.74
37 | CCCATTATTGTTGGGGGTACAATTTTGAATATATAT [XGTACX_site2227] | 9.39
38 | ATATATTTATAATACACATGCAATGATATAATATAT [TGCATGCA_site20] | 9.24

Row | Sequence | gcPBM binding intensity (ln)
39 | CATATATACATATATACACACATATATATATATATA [CACACA_site645] | 9.39
40 | GTAAGAAAGAAAGGAAGTACGTAAGAAAGTAAGAAC [XGTACX_site1239] | 9.81
41 | TATATATATTATATAGTGCATTGAAGAAGGGGATTT | 9.22
42 | TTTTTTTTTCTGTGAGTGCATGTAATAAAATAAATT [GTGCAC_site9740] | 8.98
43 | TCATAATGAAAACAAGCACACATACATAAAATAAAA [CACACA_site9069] | 9.7
44 | ATATGTATTAAGTGTACACATATAATGTATTTTGTT [CACACA_site4177] | 9.4
45 | TTATTTACCATCTCTACACACAAAAATTGATGTAGA [CACACA_site2811] | 9.43
46 | TAAATTATATTATGCACACTTAAAAATATATTTAAC [CACACA_site3512] | 9.24
47 | ATATGTAATAATAAATGTACGAAACATTGAACGATG [XGTACX_site1266] | 9.58
48 | GAATCATCCAAAATTGCATGCAAGGAAGAAGAAAAA [TGCATGCA_site764] | 9.21
49 | TTTTTATATATCACGTGTACATATTTATTTTTACTC [XGTACX_site8049] | 9.3
50 | AAATCACCTTAAGAACGTACAAACAGAAAAAAATTA [XGTACX_site4623] | 9.31
51 | TTTATTATATTTATATGTACTTATATAATATATGCA [XGTACX_site1906] | 9.09
52 | TTATAAATATAATATTGTACAAAATTTTAACATGTC [XGTACX_site5259] | 9.15
53 | CTTATGTGTATAAGTAGTACTAAATTAAAATAATAT [XGTACX_site2681] | 9.27
54 | CGTATGAAACATATATGTACTTATAAAAATATAACC [XGTACX_site7539] | 9.4
55 | ATAAATAAAATTAGGTGTACTTTAATTAAAGAAAAT [XGTACX_site3319] | 9.29
56 | TATACATATATAATATGTACATATATTTTTTTTTAA [XGTACX_site2938] | 8.98
57 | CATAAAAATATTTTCTGTACATATTCATATGACGTT [XGTACX_site3406] | 9.18
